Test system: DIO mice
Experiment: body weight reduction by multiple subcutaneous injections in DIO mice
Format: in vivo
Conditions: 30 nmol/kg subcutaneous twice a week for 5 weeks, mean of 6 mice
Method: 7-week-old C57BL/6Nju mice were fed with a high-fat diet (of about 20% protein and about 60% fat) for 12 weeks for modeling. Feeding conditions: 12 hours of light and 12 hours of darkness cycle every day, ad libitum feeding, temperature 20-25° C., relative humidity 40-70%, ventilation frequency of 10-15 times/hour. According to body weight, water consumption, and food intake, the mice were randomly divided into groups the day before administration. […] Subcutaneous injection treatment was administered twice a week for 5 consecutive weeks, for a total of 10 administrations. After the administration, the body weight, OGTT, body fat ratio, blood lipids and liver function of the mice were measured. The data are shown as mean±standard deviation, and statistically analyzed by One-Way ANOVA.

B1: Fc-FGF21: Fc-FGF21 mutant, SEQ ID NO 3; FGF21 single activity comparator (protein)
chain: [human IgG4 Fc with S228P F234A L235A (EU numbers) not listed]GGGGSGGGGSGGGGSHPIPDSSPLLQFGGQVRQVYLYTDDAQQTEAHLEIREDGTVGGAADQSPESLLQLKALKPGVIQILGVKTSRFLCQRPDGALYGSLHFDPEACSFRERLLEDGYNVYQSEAHGLPLHLPGNKSPHRDPAPRGPARFLPLPGLPPALPEPPGILAPQPPDVGSSDPLSMVGNSTGRSPSYAS
modifications: Fc-FGF21 mutant fusion protein
With B1 as the molecule, how does the ALT (DIO mice) read?
The ALT was 88.365 U/L.

What about the AST (DIO mice) of the same molecule?
Its AST is 77.658 U/L.

What about the “Blood glucose (fasting)” value (DIO mice) of the same molecule?
The value was 9.12 mmol/L.

And the “LDL-C (plasma low-density lipoprotein cholesterol)” value (DIO mice)?
Its value is 0.656 mmol/L.

And the “TC (plasma total cholesterol)” value (DIO mice)?
Its value is 5.364 mmol/L.

What about the “% Change in weight since inception” value (DIO obese mice) of the same molecule?
The value was −6.65%.

And the Body fat ratio (DIO obese mice)?
Its Body fat ratio is 42.88%.
